Results as given in PubChem BioAssay AID1745853 (National Center for Advancing Translational Sciences (NCATS), 2022).
The other results are listed elsewhere or left out. The main result of the screen is listed elsewhere. These columns were measured beside it and carry no call.

Key:
Assay in all cases: Primary Screen for Target Class Profiling of Small Molecule Inhibitors of Methyltransferases
[1] = molecular target: Glycine N-methyltransferase (Homo sapiens) (UniProt Q14749); details: purified enzyme, MTase-Glo SAH luminescence; measured here: GNMT inhibition; at 40 µM; stronger effect = lower value
Outline: (§1)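 Each enzyme was reacted with SAM and its substrate, with compounds tested once at 40 uM; SAH formed was read by MTase-Glo luminescence.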

[2] = molecular target: Guanidinoacetate N-methyltransferase (Homo sapiens) (UniProt Q14353); details: purified enzyme, MTase-Glo SAH luminescence; measured here: GAMT inhibition; at 40 µM; stronger effect = lower value
Outline: as §1

[3] = molecular target: Histamine N-methyltransferase (Homo sapiens) (UniProt P50135); details: purified enzyme, MTase-Glo SAH luminescence; measured here: HNMT inhibition; at 40 µM; stronger effect = lower value
Outline: as §1

[4] = molecular target: Nicotinamide N-methyltransferase (Homo sapiens) (UniProt P40261); details: purified enzyme, MTase-Glo SAH luminescence; measured here: NNMT inhibition; at 40 µM; stronger effect = lower value
Outline: as §1

[5] = molecular target: Phenylethanolamine N-methyltransferase (Homo sapiens) (UniProt P11086); details: purified enzyme, MTase-Glo SAH luminescence; measured here: PNMT inhibition; at 40 µM; stronger effect = lower value
Outline: as §1
% is set by controls: 0 for no effect and ±100 for the full control effect.

Structure (SMILES)	activity change, negative = inhibition [1] [%]	activity change, negative = inhibition [2] [%]	activity change, negative = inhibition [3] [%]	activity change, negative = inhibition [4] [%]	activity change, negative = inhibition [5] [%]
COc1ccc2cc3n(c2c1)CC(C)(C(=O)NC1CCCCC1)N(CCc1ccccc1)C3=O (stereo not given)	-1.2	4.25	2.41	-4.58	-0.978
COCc1noc([C@@H]2CN(C(=O)C3CC=CCC3)C[C@H]2C(N)=O)n1 (stereo not given in full)	-1.67	0.711	0.569	2.12	-1
C=CCOc1cc(Cl)ccc1C(=O)NCCN(CC)CC	-6.17	-4.97	-3.42	-13.5	-2.87
CCc1ccc(S(=O)(=O)c2nnn3c2nc(NCc2cccc(OC)c2)c2ccccc23)cc1	-3.07	2.88	-4.04	1.63	-5.62
Cc1nc(-c2cn(C3CCCN(C(=O)c4ccc(Cl)s4)C3)nn2)no1 (stereo not given)	-5.86	-0.749	-2.16	-6.36	-7
CN1CCC(N(Cc2cccs2)c2ccccc2)CC1	1.63	9.14	-20.2	-18.3	-5.76
O=C1CCN(C(=O)CCc2nc3ccccc3s2)CCCCCCN1	-1.44	-1.83	0.004	1.17	-5.01
CCCSCCCNC(=O)c1cc2n(n1)CC(C)(C(=O)NC1CCCCCC1)N(C)C2=O (stereo not given)	-2.02	-4.09	-7.03	-0.684	-8.17
C[C@@H]1O[C@@H](O[C@@H]2[C@@H](O)[C@H](O[C@H]3[C@H](O[C@H]4CC[C@@]5(C)C(CC[C@]6(C)C5CC=C5[C@@H]7CC(C)(C)CC[C@]7(C(=O)O[C@@H]7O[C@H](CO)[C@@H](O)[C@H](O)[C@H]7O[C@@H]7O[C@@H](C)[C@H](O[C@@H]8O[C@@H](C)[C@H](O)[C@@H](O)[C@H]8O)[C@@H](O)[C@H]7O)CC[C@]56C)[C@@]4(C)CO)O[C@H](C(=O)O)[C@@H](O)[C@@H]3O)O[C@H](CO)[C@H]2O)[C@H](O)[C@H](O)[C@H]1O (stereo not given in full)	0.529	2.91	11	-8.38	2.06
COc1ccc(NS(=O)(=O)c2cc3[nH]c(=O)[nH]c3cc2C)cc1Cl	13.5	1.55	14.1	-2.53	-0.032
O=C(CCc1nnc2n(Cc3ccc(Cl)cc3)c(=O)c3ccccc3n12)NCc1ccc(F)cc1	0.76	0.651	9.29	15.8	4.78
O=C(C1CCCC1)N1CC2(CCN(Cc3ccc(Cl)cc3)C2)Cc2ccccc21 (stereo not given)	-2.43	-3.11	-1.81	-6.79	-1.23
COc1ccccc1CN1C(=O)c2cc(-c3cccs3)nn2CC1(C)C(=O)NC1CCCCCC1 (stereo not given)	4.23	1.25	3.81	-2.47	2.6
CC(=O)Nc1c2n(c3ccc(F)cc13)CC(C)(C(=O)NCCC(C)C)N(CCC(C)C)C2=O (stereo not given)	2.82	0.023	5.96	5.31	0.18
O=C(Cn1ccc2cc(S(=O)(=O)N3CCCC3)ccc21)NCCc1ccco1	2.38	4.16	4.06	4.02	-0.656
CCC(=O)N1CCc2sc(C(=O)N3CCN(c4cccc(Cl)c4)CC3)cc2C1	-7.78	-2.67	-3.98	-7.63	-0.397
CC(C)(C)NC(=O)[C@@H]1CN(Cc2cccnc2)CCN1C[C@@H](O)C[C@@H](Cc1ccccc1)C(=O)N[C@H]1c2ccccc2C[C@H]1O	4.05	4.6	11.6	-11.7	0.625
C=CC(C)(C)O[C@@H]1O[C@H](CO[C@@H]2OC[C@](O)(CO)[C@H]2O)[C@@H](O)[C@H](O)[C@H]1O	0	3.84	6.51	-4.82	6.07
CC(=O)O[C@H]1CC[C@]2(C)[C@H]3CC[C@]4(C)Oc5oc(C)cc(=O)c5C[C@H]4[C@]3(C)CC[C@H]2C1(C)C	-0.126	-1.35	-2.3	-19.2	0.228
CC(C)Cn1c(=O)c2ccccc2n2c(=O)n(CC(=O)NCc3ccccc3)nc12	-0.702	0	3.72	-1.66	-0.954
O=C(O)c1ccccc1Nc1cccc(OCc2ccc3ccccc3n2)c1	-24.9	11.3	1.03	-9.46	0.693
CC1(C(=O)NC2CCCCC2)Cn2c(nc3ccccc32)C(=O)N1Cc1ccccc1 (stereo not given)	-0.325	4.18	3.42	-3.74	0.501
Cc1ccc(CN2CCC([C@@H]3CNC[C@H]3CO)CC2)s1	-3.27	-2.37	-9.31	-6.33	-3.13
OC[C@@]1(O)CO[C@@H](OC[C@H]2O[C@@H](OCc3ccccc3)[C@H](O)[C@@H](O)[C@@H]2O)[C@@H]1O	4.15	7.06	7.76	-4.31	3.05
COc1cccc(C2c3cccn3-c3sc4c(c3CN2C(=O)Nc2cc(C)ccc2OC)CCCC4)c1 (stereo not given)	2.13	0.059	3.93	4.24	5.82
COc1ccc2cc1Oc1ccc(cc1)C[C@H]1c3c(cc4c(c3Oc3cc5c(cc3OC)CCN(C)[C@@H]5C2)OCO4)CCN1C	-34.9	-5.64	-9.21	-45.3	-10.8
COc1cccc(CCNC(=O)c2c(C)noc2-c2ccco2)c1	-8.4	-13.4	-5.29	-24.5	-9.03
O=C(Nc1ccccc1)NC1CCN(CCn2nc3n(c2=O)CCCC3)C1 (stereo not given)	-4.31	-2.78	-0.7	-4.8	-6.28

Structure (SMILES)	activity change, negative = inhibition [1] [%]	activity change, negative = inhibition [2] [%]	activity change, negative = inhibition [3] [%]	activity change, negative = inhibition [4] [%]	activity change, negative = inhibition [5] [%]
COc1cc(C(O)C(=O)O)ccc1O (stereo not given)	-0.681	7.91	3.36	-6.41	2.31
COc1ccc(CNC(=O)C2CCN(C(=O)c3oc4cc5sc(N(C)C)nc5cc4c3C)CC2)cc1	-1.82	4.75	-0.865	4.33	-1.64
CO[C@H]1/C=C/C=C/C=C/C[C@H](OC(=O)[C@@H](C)NC(=O)C2CCCCC2)[C@H](C)[C@@H](O)/C(C)=C/CCc2cc(O)cc(c2)NC(=O)C1	-1.7	2.91	7.66	-10.1	-7.14
CCc1ccccc1NC(=O)CN(C)S(=O)(=O)c1ccc2[nH]c3c(c2c1)CCCC3	-8.89	2.26	0.223	-1.38	-0.563
COc1cccc(N2C(=O)CSc3c(c4ccccc4n3C)C2C(=O)NCCCOC(C)C)c1 (stereo not given)	4.67	0.069	-0.176	-4.61	2.81
Cc1cccc(-c2nnn3c2nc(N2CCSCC2)c2cc(Cl)ccc23)c1	1.91	0.795	10.8	11.6	3.25
CN(C)C(=O)NC1CCC(CCN2CCN(c3cccc(Cl)c3Cl)CC2)CC1 (stereo not given)	-1.55	-4.88	4.03	-15.8	-1.12
CC(C)CCn1c(=O)c2ccc(C(=O)NC(C)C)cc2n2c(=O)n(CC(=O)Nc3ccc(F)cc3)nc12	2.37	2.21	0.213	-6.32	0.05
CC1CCCCC1NC(=O)C1(C)Cn2c(ccc2-c2ccco2)C(=O)N1Cc1ccccc1F (stereo not given)	0.194	0	3.2	-0.471	-2.92
CN(C)CCC(c1ccc(Cl)cc1)c1ccccn1 (stereo not given)	3.13	7.73	-8.7	-7.7	-0.714
Cc1ccc(OC(C)c2nc(-c3cccnn3)no2)cc1C (stereo not given)	-2.98	-3.32	-0.834	-6.8	-6.13
C/C=C(\C)C(=O)O[C@H]1C[C@](C)(O)[C@H]2CC=C(C)[C@H]2[C@@H]2OC(=O)[C@H](C)[C@H]21	-4.48	-9.56	3	-20.5	-6.15
COc1ccc(CN2C(=O)c3ccccc3CC2(C)C(=O)NC2CCCCC2)cc1 (stereo not given)	-2.91	2.49	11.3	9.65	3.26
CCC(C)NC(=O)c1ccc2c(=O)n(CC(C)C)c3nn(Cc4ccc(F)cc4)c(=O)n3c2c1 (stereo not given)	-1.68	3.6	3.79	1.33	-0.898
C[C@H](O)C(=O)C1=Nc2c(nc(N)[nH]c2=O)NC1	4.73	8.86	10.8	-6.64	-1.24
CC(C)CNC(=O)c1ccc2c(=O)n(CC(C)C)c3nn(Cc4cccc(Cl)c4)c(=O)n3c2c1	3.71	5.46	6.05	6.89	4.37
Fc1ccccc1CN1CCCC2(CCN(c3cnccn3)C2)C1 (stereo not given)	-1.67	-1.86	-2.22	-17.5	-2.23
CN1C[C@@H](NC(=O)CC(C)(C)CC(=O)O)C[C@H]1c1nc(-c2ccccn2)no1	-2.11	-1.71	-3.44	-6.39	12.5
C[C@]1(O)CC[C@@H]2C(C(=O)O)=CO[C@@H](O[C@@H]3O[C@H](COC(=O)c4ccc(O)cc4)[C@@H](O)[C@H](O)[C@H]3O)[C@@H]21	5.58	6.89	12.6	-5.91	6.13
Cc1ccc(CN2CCCCCCNC(=O)[C@@H]3C[C@@H](C(=O)NCCc4cnc[nH]4)C[C@@H]32)o1	-13	-10.9	-7.17	-17.4	-13.2
CC1CCCCC1NC(=O)C1(C)Cn2c(cc3occc32)C(=O)N1CCN(C)C1CCCCC1 (stereo not given)	4.37	1.73	5.84	2.65	0.217
Fc1ccc(-n2cc(CCCCN3CCC4(CC3)OCc3ccccc34)c3ccccc32)cc1	-2.73	-0.427	-0.064	-22.8	-6.63
C/C=C/C=C/c1cc2c(C=O)c(O)c(CC=C(C)C)cc2o1	-16	-18.5	1.41	-29.5	-2.42
CC1=CCC[C@@H]2[C@](CCc3ccoc3)(C(=O)O)[C@H](C)CC[C@@]12C	-1.22	4.31	6.31	-11.6	0.583
CCCn1c(=O)c2ccc(C(=O)NC3CCCC3)cc2n2c(=O)n(CC(=O)Nc3ccccc3)nc12	-0.017	0	5.48	3	3.21
CCN1CCC(N2CCC3(CC2)CC2C(=O)N(CC)C(=O)N2C3)CC1 (stereo not given)	-3.99	-2.16	-1.98	-0.996	12.5
C[C@@H]1O[C@@H](OC[C@H]2O[C@@H](OCCc3ccccc3)[C@H](O)[C@@H](O)[C@@H]2O)[C@H](O)[C@H](O)[C@H]1O	0	2.62	0.152	-11	4.07
